# Data as given in PMC7819943, “Rice protein-binding microarrays: a tool to detect cis-acting elements near promoter regions in rice”.
# The other results are listed elsewhere or left out.
# Molecular target: T1, OsWOX13 (Oryza sativa, UniProt Q5QMM3 1-267)
# T1 sequence: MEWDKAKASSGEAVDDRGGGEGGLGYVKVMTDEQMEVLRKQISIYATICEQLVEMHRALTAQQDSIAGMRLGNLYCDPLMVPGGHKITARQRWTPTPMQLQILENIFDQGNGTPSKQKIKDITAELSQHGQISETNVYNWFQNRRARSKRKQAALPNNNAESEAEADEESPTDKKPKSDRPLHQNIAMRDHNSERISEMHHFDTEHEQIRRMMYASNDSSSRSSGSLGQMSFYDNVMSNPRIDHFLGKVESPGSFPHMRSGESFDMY
# Experiment: protein-binding microarray (RPBM); PBS, 2% BSA, 51.3 ng/ul salmon testes DNA, 50 uM zinc acetate, 200 nM TF, 25 C, 1 h; high values mean tight binding
# Conditions: protein: recombinant; tags: N-terminal polyhistidine and DsRed monomer fusion (pET32a); label: CyDye5-dUTP incorporated in the synthesized complementary strand; 3' TTTTT single-stranded linker to array surface; dsDNA, one strand shown
# Summary of the method: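 An Axon 4000B scanner gave the binding signal as per-feature fluorescence intensity in arbitrary units. This followed washing of a custom Agilent array that had been incubated for 1 h at 25 °C with 200 nM protein in PBS, 2% BSA, salmon testes DNA and 50 µM zinc acetate. The proteins were transcription factors fused at the N-terminus to polyhistidine and DsRed, expressed in E. coli BL21-CodonPlus and purified on Ni–NTA.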
row,Sequence,binding signal
1,TATATTAATTATCACCTATTGGGCTTTTAAATTTGGTTTACGGAGTCACCTAGTGCAG,16600 fluorescence intensity (a.u.)
2,GAGAAATTTCAATCGTGCAATCTTACTCTATCGTGATATACGGAGTCACCTAGTGCAG,10000 fluorescence intensity (a.u.)
3,CCCATTGAATTAATTTCGGCGTACATACTGGTGCCTTTTCCGGAGTCACCTAGTGCAG,5780 fluorescence intensity (a.u.)
4,CTAATTAATCTATAATTAGAGAATATTTACTGTAGCATCACGGAGTCACCTAGTGCAG,22400 fluorescence intensity (a.u.)
5,GATGTGACTGAAAAGTTGTATGTGTATGACAGGTTGATGTCGGAGTCACCTAGTGCAG,8260 fluorescence intensity (a.u.)
6,AGGTAATTTAGTGGAATCCGAGCTATCTTCTAGGAGGTTTCGGAGTCACCTAGTGCAG,7360 fluorescence intensity (a.u.)
7,AATCTCCTAATTATGTATTGCCCAAATCCATTTATTTTCCCGGAGTCACCTAGTGCAG,7170 fluorescence intensity (a.u.)
8,ACAATCATAGCAGAATCAAATCAATCAACATCATTATATTCGGAGTCACCTAGTGCAG,4800 fluorescence intensity (a.u.)
9,CCCAGTAATTGGCATGCTTTATCAGTAGTTCAGTACTACTCGGAGTCACCTAGTGCAG,34000 fluorescence intensity (a.u.)
10,TTAAATTAGTGTCTAAACATCCGATGTGACAGGGACTTGTCGGAGTCACCTAGTGCAG,29100 fluorescence intensity (a.u.)
11,AGAGGAGATTGAGAAGATTGAAAAGATACGTAAAACGAGACGGAGTCACCTAGTGCAG,39100 fluorescence intensity (a.u.)
12,GATCTATCTCAATCAACCCACGTGGCCTCACCTCGCCGGACGGAGTCACCTAGTGCAG,6630 fluorescence intensity (a.u.)
13,TAAAATTGCCAAATATTGGTAAGCCTAATTTAGGCCTCAACGGAGTCACCTAGTGCAG,6980 fluorescence intensity (a.u.)
14,CCATGTGATTATATGGGCCAACCCTGAGCCGCTGACGTGGCGGAGTCACCTAGTGCAG,18100 fluorescence intensity (a.u.)
15,CAAACTGATCATAATTCTAAATATTGCTAGTAAGTTAACCCGGAGTCACCTAGTGCAG,9380 fluorescence intensity (a.u.)
16,ATTGCATTGATTTACTGTGCTATTCACATGAACAGTAACCCGGAGTCACCTAGTGCAG,11800 fluorescence intensity (a.u.)
17,TAATAAATTATAACAAATGTAGTTACATTTTAACTTCAAACGGAGTCACCTAGTGCAG,11300 fluorescence intensity (a.u.)
18,CGCCTGAGCTAATGTGATTGCAACGTGAGACACGGACGGACGGAGTCACCTAGTGCAG,6470 fluorescence intensity (a.u.)
19,GGTGAAATTGATAATTCATCTAACAAGTAGATCACATATTCGGAGTCACCTAGTGCAG,35000 fluorescence intensity (a.u.)
20,AGGACGTCAAAGATTGGAAAATTAACTTCATGGAATGACACGGAGTCACCTAGTGCAG,7560 fluorescence intensity (a.u.)
21,TTAGTCCATGATTAGCCATAAGTGCTACAGTAAACCACATCGGAGTCACCTAGTGCAG,9190 fluorescence intensity (a.u.)

row,Sequence,binding signal
1,CTAATTAGCACAGTTGCACACATGTTTTAGCCTTTTGGTCCGGAGTCACCTAGTGCAG,6930 fluorescence intensity (a.u.)
2,TTAGCAGAAACCACATGTGATTAGTGATTCCTTGGGTTCCCGGAGTCACCTAGTGCAG,3360 fluorescence intensity (a.u.)
3,TTTACATTTTCTTCAATTTTGATTGCAAATGCCAAGTAAGCGGAGTCACCTAGTGCAG,7140 fluorescence intensity (a.u.)
4,ATTGTAATAATCTATCATAATAATTAACTTGTTTGTTTCACGGAGTCACCTAGTGCAG,16900 fluorescence intensity (a.u.)
5,TTATATGATGATCAATTTAGAAAGGAGAGAGTATTTAGTTCGGAGTCACCTAGTGCAG,12200 fluorescence intensity (a.u.)
6,CACAATCAGAGAGGAAATTGAGCTTATGAGTAAGTCAATCCGGAGTCACCTAGTGCAG,7020 fluorescence intensity (a.u.)
7,ATGTTCCTGATTACCCGGTTAGTAAAATTTGAATCGTACTCGGAGTCACCTAGTGCAG,10600 fluorescence intensity (a.u.)
8,GGGTGGAGTAGATTGATAATACGGGTGTAGTTCGAGGGTCCGGAGTCACCTAGTGCAG,26100 fluorescence intensity (a.u.)
9,TTCAACCAATTGACAGACCGCATTTGGTACAGCGTCAATTCGGAGTCACCTAGTGCAG,17400 fluorescence intensity (a.u.)
10,TAAGCTTAATTAGTCTAATGATGGATTAATTAAGCTTAATCGGAGTCACCTAGTGCAG,32400 fluorescence intensity (a.u.)
11,AATTACTGATTGGTCATTAGTTGCCCTCATGAATCCATGACGGAGTCACCTAGTGCAG,40400 fluorescence intensity (a.u.)
12,GTTTAGATGATCTACAGTCAATAAGTAACTGTCTTGAAGACGGAGTCACCTAGTGCAG,4470 fluorescence intensity (a.u.)
13,GTCATAATTTGAAATTCAAATTTAAACTATTCAAACAAAGCGGAGTCACCTAGTGCAG,23300 fluorescence intensity (a.u.)
14,GTGATTTACTTTATTATCAAAAGTAAGTATGACTTATCCTCGGAGTCACCTAGTGCAG,3870 fluorescence intensity (a.u.)
15,ATTCGTCGAATGATAATCATGGCGATAGATTAAGACGCGACGGAGTCACCTAGTGCAG,6670 fluorescence intensity (a.u.)
16,AGATGATTGGGATAGTTCTCTGGACAGTGATGTGGCATCACGGAGTCACCTAGTGCAG,25000 fluorescence intensity (a.u.)
17,AGCAGATATTAATTTAATGCTGATCACTGAACATTGATGACGGAGTCACCTAGTGCAG,13200 fluorescence intensity (a.u.)
18,ATATTTAGACACTAATTTAGAGTATTAAATATAGACTACTCGGAGTCACCTAGTGCAG,8680 fluorescence intensity (a.u.)
19,AATGAATAAATTTGGCAGTCCAATAATATATATACTTCCACGGAGTCACCTAGTGCAG,3850 fluorescence intensity (a.u.)
20,ACTAGTAATTGCTTCTGGATGACTGAATTAGGTGCATAGACGGAGTCACCTAGTGCAG,21300 fluorescence intensity (a.u.)
21,TAATCTACCATTTGATAGACAATTTTCTAGTGTAGCTAAACGGAGTCACCTAGTGCAG,3980 fluorescence intensity (a.u.)
